# Test results taken from the supplement of paper PMC3334620.
# The full ranking holds about 33,000 sequences; the median of “E-score (-0.5 to 0.5)” is about -0.036, and the highest 2% start at about 0.37. This is one part of the list.
# Biological target: T1, Yer064c (UniProt P40041)
# T1 sequence: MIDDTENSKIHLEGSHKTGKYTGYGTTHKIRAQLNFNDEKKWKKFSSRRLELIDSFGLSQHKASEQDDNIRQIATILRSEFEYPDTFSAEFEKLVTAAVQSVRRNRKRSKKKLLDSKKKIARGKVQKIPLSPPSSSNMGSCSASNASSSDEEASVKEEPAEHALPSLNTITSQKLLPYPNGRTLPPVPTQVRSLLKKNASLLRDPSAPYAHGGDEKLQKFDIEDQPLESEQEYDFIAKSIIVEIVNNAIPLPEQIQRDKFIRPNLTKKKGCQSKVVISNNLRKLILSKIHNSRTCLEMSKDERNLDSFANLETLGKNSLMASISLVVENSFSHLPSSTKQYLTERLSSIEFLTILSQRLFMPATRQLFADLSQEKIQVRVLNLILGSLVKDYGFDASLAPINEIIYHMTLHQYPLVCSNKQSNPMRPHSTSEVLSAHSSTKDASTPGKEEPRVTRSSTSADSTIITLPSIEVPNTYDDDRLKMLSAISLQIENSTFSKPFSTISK
# Test: PBM E-score (8-mer binding enrichment) (E-score (-0.5 to 0.5)); higher = stronger / more preferred TF binding; most listed sequences are background and not binding sites
# Details: protein concentration: 200 nM; construct: GST-full length
# Method in brief: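 Masliner-normalised scans of fluorescent anti-GST signal were the basis for scoring. That signal came from GST-tagged yeast transcription factors applied at about 100-200 nM to double-stranded universal all-10-mer Agilent arrays on fresh or once-stripped slides. Each ungapped eight-base word, pooled with its reverse complement, received an E-score from the Universal PBM Analysis Suite.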
row,Sequence,PBM E-score
1,CCAGATGG,-0.0617
2,CGGAAATC,0.125
3,ACTATAGC,0.12
4,CTGTACAC,-0.228
5,ACGTTCAC,-0.237
6,CAATTACA,0.0413
7,ACCACCGC,-0.21
8,CCGGACAG,-0.136
9,CATAGAGA,0.165
10,CCCGGAAG,-0.242
11,CCCGCCTC,-0.0906
12,AATGGCAA,-0.00615
13,AGACGCTA,-0.0528
14,ATAGCGGC,-0.169
15,ATATTAGC,0.112
16,GGTAGGAC,-0.126
17,AGGTCACG,-0.143
18,AATGACAC,-0.0672
19,CCTAGCAC,-0.405
20,GATTGCAC,0.218
21,CGAATTGA,0.136
22,ACATATAG,0.035
23,AAGGAACT,-0.21
24,TGTGAAAA,-0.079
25,CTCCACCC,-0.099

row,Sequence,PBM E-score
1,GATAGATA,-0.0933
2,GATCAGGA,-0.0664
3,AAGATGGT,-0.157
4,ACAGGACT,0.272
5,ACGTAAAG,0.0517
6,CCTCTGCG,-0.125
7,AGTATTGA,0.145
8,AAACGACA,-0.098
9,ACGCGTCG,-0.0105
10,CGATTTTC,0.0242
11,CGCGTGTA,0.147
12,TCTGTACA,0.101
13,CCTAGTCC,0.0749
14,AGATCTGA,0.169
15,CTCAGCCC,-0.0848
16,AAGGCGGG,-0.156
17,GTCGCTCA,0.171
18,TCCATCCA,-0.0667
19,ACGATGTG,0.152
20,TCCTTCAA,0.102
21,CATTCTCC,-0.102
22,AGCTACGA,-0.0242
23,GACTAGTA,0.391
24,ACTATTTC,0.108
25,ACCCCCCG,-0.231

row,Sequence,PBM E-score
1,CGAAGGAC,0.079
2,ACAAGCTC,-0.275
3,CACTGTCG,-0.136
4,GGCCAGCC,-0.191
5,ATCTCCAT,-0.156
6,AATTTGAG,0.158
7,GGACTGAC,0.226
8,AATCAGAA,0.3
9,TTTGAAAA,0.127
10,ATTTATTA,-0.0394
11,TGGACAAA,-0.146
12,CCACTGAC,0.0888
13,GATATCAC,-0.114
14,CGTTGCAC,-0.129
15,CCGTTTCG,-0.216
16,AATTCGAC,-0.067
17,ACAGTTCG,-0.101
18,CGCACCGA,-0.00675
19,AGAGCGTA,-0.0942
20,CTTGTGCA,-0.112
21,ACCCTACC,-0.0414
22,TACGATGA,0.212
23,CTCTGGGC,-0.0927
24,GCCTTAAC,-0.104
25,CCTGTAGC,-0.0723

row,Sequence,PBM E-score
1,AGGGGTAA,-0.0851
2,AACCGGGG,-0.0285
3,AACACCGG,-0.00387
4,CGAGGCGC,-0.2
5,GACGCGCA,-0.212
6,AATGACGC,-0.0588
7,CGACGCGC,-0.0907
8,TATCATAA,0.0309
9,CGAACCGC,0.0436
10,ATCGAGAG,-0.0358
11,AGTGAGCA,0.0822
12,GCGCACAC,-0.195
13,CGCAACGC,-0.182
14,ACAGTTTA,0.00332
15,GGGGATAC,-0.249
16,GAGCACCC,-0.339
17,CAAGTCAC,0.36
18,CAGATTTC,-0.0533
19,CGGATTAC,0.0966
20,CCTAGAGC,-0.238
21,CACGCCTA,-0.0827
22,GTTTCACA,-0.0585
23,CGTTGGAG,-0.00447
24,GGCTTTCA,-0.0627
25,GCCGCCCA,-0.277

row,Sequence,PBM E-score
1,GACTGCCA,0.245
2,ACGTGCCC,-0.211
3,AATGAAGG,-0.185
4,AGTCAAAG,0.406
5,ACGCACAA,-0.117
6,CCTCGATA,0.0141
7,GCTTCCTA,-0.141
8,AACAAACG,-0.206
9,AGTCTGGA,0.167
10,GCGGTCCC,-0.234
11,TCTCTACA,-0.0343
12,ATGAAAGC,-0.139
13,TTAGGGAA,-0.0289
14,CAGAGAAC,-0.0639
15,AGGCACGA,0.02
16,ATAACGTC,0.0229
17,GCGCTTCC,-0.28
18,GCTTGAAA,-0.125
19,TCGCTTCA,-0.0884
20,GGCAGACA,-0.259
21,GCCCCAAA,-0.26
22,CTTTGTCA,0.022
23,ACCGCAAG,-0.129
24,AGGAATGG,-0.0597
25,GATCATAC,-0.0115

row,Sequence,PBM E-score
1,AGACTTCC,0.157
2,CGACCTAG,0.0107
3,AATACACC,-0.0713
4,CGACTGGC,-0.00941
5,ATACAAGC,-0.123
6,CAGGGTGG,-0.0658
7,CTGTTGAC,0.127
8,ACATGTGA,0.0466
9,ACTTTATA,0.00037
10,ACGTCCTC,-0.264
11,AGATACGC,-0.268
12,CAAAATAA,0.0314
13,ATTCTACC,0.08
14,GATGACCA,0.262
15,ATCTGAGA,0.126
16,CACATATC,0.0805
17,ATTGACTC,0.445
18,ATGTTCGA,-0.0418
19,GTCAGGGA,0.139
20,AGCATAAC,-0.143
21,GCTCGGTA,-0.0582
22,TACGGATA,0.122
23,GAATTGGC,-0.22
24,ATAAACAT,0.0529
25,GTATGCAA,-0.0656

row,Sequence,PBM E-score
1,AACCGGTA,-0.295
2,CAATCCAC,0.0303
3,TAAGCTGA,0.153
4,ACCGTGTA,-0.0452
5,CTCACCAC,-0.0184
6,CTGAAGAA,-0.0221
7,TAACCTAA,-0.0307
8,TCATATAA,0.143
9,AGCTGCCT,-0.192
10,ATCGAATA,-0.162
11,GTACATCA,0.0356
12,TAAATTCA,0.0168
13,CCACCAGA,-0.0605
14,GGGAGAGA,-0.255
15,CTCTAGAA,0.0549
16,CCTTGGGC,-0.276
17,AGCTTTAG,0.0221
18,ACGGTCCG,-0.209
19,GGGCACAA,-0.229
20,GTCGAAGA,0.0215
21,CGACGTAC,-0.072
22,CGTAGACG,0.0186
